Reference: patent US20230287391A1, “KRAB FUSION REPRESSORS AND METHODS AND COMPOSITIONS FOR REPRESSING GENE EXPRESSION” (THE GOVERNING COUNCIL OF THE UNIVERSITY OF TORONTO, priority 2020, published 2023)

Tested on: TetO array downstream of an EGFP expression cassette integrated in the AAVS1 locus
Experiment: Inducible repression system (ABI-dCas9 / KRAB-PYL1) in K562 reporter cells
Details: 100 μM abscisic acid, 5 and 14 days; compared to KOX1-PYL1
Protocol: The performance of the ZIM3 KRAB repressor was tested in an inducible repression system as described in [14]. K562 reporter cells were transduced with ABI-dCas9 and a single gRNA targeting the TetO array downstream of an EGFP expression cassette integrated in the AAVS1 locus. These cells were then infected at high multiplicity of infection with lentivirus containing either ZIM3 or KOX1 KRAB domains fused to PYL1. After two rounds of selection, cells were treated with 100 μM of abscisic acid and EGFP levels after 5 and 14 days of recruitment were measured by flow cytometry (FIG. 7). […] Additional methods are as described in Example 4.

Substance: ZIM3 KRAB-PYL1: ZIM3 KRAB domain fused to PYL1 (SEQ ID NO: 16), recruited to ABI1-dCas9 by abscisic acid
- EGFP silencing: superior silencing
